Measurements taken from publication PMC7819943, “Rice protein-binding microarrays: a tool to detect cis-acting elements near promoter regions in rice”.
The other results are listed elsewhere or left out.

These sequences were tested against T1, OsWOX13 (Oryza sativa, UniProt Q5QMM3 1-267) (assay: protein-binding microarray (RPBM); PBS, 2% BSA, 51.3 ng/ul salmon testes DNA, 50 uM zinc acetate, 200 nM TF, 25 C, 1 h; high values mean tight binding). Details: protein: recombinant; tags: N-terminal polyhistidine and DsRed monomer fusion (pET32a); label: CyDye5-dUTP incorporated in the synthesized complementary strand; 3' TTTTT single-stranded linker to array surface; dsDNA, one strand shown.
T1 sequence: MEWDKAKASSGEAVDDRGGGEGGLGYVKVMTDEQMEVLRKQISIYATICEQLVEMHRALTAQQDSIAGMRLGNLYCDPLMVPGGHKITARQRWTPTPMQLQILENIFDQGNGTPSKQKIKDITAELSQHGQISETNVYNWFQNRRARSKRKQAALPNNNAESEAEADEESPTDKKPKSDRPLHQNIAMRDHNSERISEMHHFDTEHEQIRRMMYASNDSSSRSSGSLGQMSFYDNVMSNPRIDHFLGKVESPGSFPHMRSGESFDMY
Method in brief: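 The binding signal for each feature is its fluorescence intensity in arbitrary units. An Axon 4000B scanner was used to read a custom Agilent array that had been made double-stranded with Cy5-dUTP primer extension, blocked with 2% BSA, incubated at 25 °C for 1 h with 200 nM protein in PBS, 2% BSA, salmon testes DNA and 50 µM zinc acetate, and washed. The protein was an N-terminal polyhistidine–DsRed transcription factor fusion from E. coli BL21-CodonPlus, purified on Ni–NTA.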

Q: “CTTTCTCGCAGCAAGATTGTCAATCTCTTGACTATTTCTGCGGAGTCACCTAGTGCAG” was tested. Which binding signal did it give?
A: 6290 fluorescence intensity (a.u.)

Q: Which binding signal does the source give for “CGCCTCAATCACCAAATCGATTTCACATCATTCGTCTCTTCGGAGTCACCTAGTGCAG” here?
A: 16200 fluorescence intensity (a.u.)

Q: How did the binding signal turn out when “GCCAATTACCTTTGTCAGATTGCCGGCATGGTGGGTAGTACGGAGTCACCTAGTGCAG” was run?
A: 11900 fluorescence intensity (a.u.)

Q: Which binding signal does the source give for “TCTTTTGATTTGGTATTCAGTTCCTCTTTCTTTCCGTTGTCGGAGTCACCTAGTGCAG” here?
A: 12700 fluorescence intensity (a.u.)

Q: For “CAGTCAATCCAATCCATCAACATATTTATTTTAATCATAGCGGAGTCACCTAGTGCAG”, which binding signal is on record?
A: 23000 fluorescence intensity (a.u.)

Q: How did the binding signal turn out when “GTAGTGCTGATTGGCCGTAGTAGTTAATTCGTTAAGAGATCGGAGTCACCTAGTGCAG” was run?
A: 36800 fluorescence intensity (a.u.)

Q: With “ATGTTGAGTGGAGATGACTGATGAGTAATCAGTCATGTTACGGAGTCACCTAGTGCAG” as the sequence, how does the binding signal read?
A: 18400 fluorescence intensity (a.u.)

Q: How did the binding signal turn out when “AACTATTTTAACGCATGATTTAACGGGGAACATCAATATACGGAGTCACCTAGTGCAG” was run?
A: 4430 fluorescence intensity (a.u.)

Q: With “GTGGGTGCCCTAATTGATTGACTGGTCCAAAGACTCAAACCGGAGTCACCTAGTGCAG” as the sequence, how does the binding signal read?
A: 50200 fluorescence intensity (a.u.)

Q: For “TTAGACAGCTGATACTCCATCAATCTGAAGTTTGAATATCCGGAGTCACCTAGTGCAG”, which binding signal is on record?
A: 5440 fluorescence intensity (a.u.)

Q: With “GAATTAAATGATGTGTGAATAATGGATGGCTAGGATGCAACGGAGTCACCTAGTGCAG” as the sequence, how does the binding signal read?
A: 9780 fluorescence intensity (a.u.)

Q: With “CACTTTATTGAATTTTCTTACTGGCATGTCCTGATCCTCTCGGAGTCACCTAGTGCAG” as the sequence, how does the binding signal read?
A: 3480 fluorescence intensity (a.u.)

Q: Which binding signal does the source give for “AATAATTAGATACTTTGTAGGGTAAAATAAGAATTTGGTGCGGAGTCACCTAGTGCAG” here?
A: 32600 fluorescence intensity (a.u.)

Q: “AAATACACTAAAATTACATATGTAATTTAGAGACTTACAACGGAGTCACCTAGTGCAG” was tested. Which binding signal did it give?
A: 4960 fluorescence intensity (a.u.)

Q: Which binding signal does the source give for “AAAATTTCGGTGATATAATTTATTTTCCACGAATTTTCGGCGGAGTCACCTAGTGCAG” here?
A: 11400 fluorescence intensity (a.u.)

Q: How did the binding signal turn out when “CTCCCTCCGTTTCATAATGTAAGACTTTCTAGCATTGTCTCGGAGTCACCTAGTGCAG” was run?
A: 48800 fluorescence intensity (a.u.)

Q: Which binding signal does the source give for “TTGTGAAATGTTGATGAGGCTGATTGAGCGAGAAGCAGTGCGGAGTCACCTAGTGCAG” here?
A: 20000 fluorescence intensity (a.u.)

Q: Which binding signal does the source give for “CTATAGCAGTGATTGCCTGTTGGCGTAAACCTCTAGGGATCGGAGTCACCTAGTGCAG” here?
A: 20000 fluorescence intensity (a.u.)

Q: “ACTAACTTATACGTATAATCAAATCAGCAATCCGTGAACACGGAGTCACCTAGTGCAG” was tested. Which binding signal did it give?
A: 6420 fluorescence intensity (a.u.)

Q: With “AAATGATAGAAAGACTCCGTTGCTTGTTAAGGCAAAATGGCGGAGTCACCTAGTGCAG” as the sequence, how does the binding signal read?
A: 8600 fluorescence intensity (a.u.)

Q: For “CCAATAATAACACTGATCACTGATCAATCATGGCATCATGCGGAGTCACCTAGTGCAG”, which binding signal is on record?
A: 16000 fluorescence intensity (a.u.)

Q: With “ATGTATGTAATTACCATTTATTTTGCTAGGATTTGTTCTTCGGAGTCACCTAGTGCAG” as the sequence, how does the binding signal read?
A: 26200 fluorescence intensity (a.u.)

Q: How did the binding signal turn out when “TGTGGGATGGATTTGTGGTGATTGAGAGGGTTTGAAAGGGCGGAGTCACCTAGTGCAG” was run?
A: 15700 fluorescence intensity (a.u.)

Q: For “TAGATTATTATAATTACTCTGTTTCAAATTCGTTGTTCAACGGAGTCACCTAGTGCAG”, which binding signal is on record?
A: 13700 fluorescence intensity (a.u.)

Q: How did the binding signal turn out when “CTAACTCAATGATTAAAATCTCGCCAGATCCCTCCTGCGTCGGAGTCACCTAGTGCAG” was run?
A: 16700 fluorescence intensity (a.u.)

Q: How did the binding signal turn out when “TTATTTATTAATTGTATTTCTATTTGGACTCTATACTCTACGGAGTCACCTAGTGCAG” was run?
A: 4650 fluorescence intensity (a.u.)

Q: With “TGTCAAAATTTTGACTGTTACTCGTTGGGACTATGGACCTCGGAGTCACCTAGTGCAG” as the sequence, how does the binding signal read?
A: 7630 fluorescence intensity (a.u.)

Q: How did the binding signal turn out when “TTTATAATTAGTGTTGTCTAGATTTATTGTACTATAATATCGGAGTCACCTAGTGCAG” was run?
A: 29400 fluorescence intensity (a.u.)

Q: With “CGCCCTAAATGGAATGGCTCTCTTATCTTAGTTACGCTGTCGGAGTCACCTAGTGCAG” as the sequence, how does the binding signal read?
A: 5140 fluorescence intensity (a.u.)

Q: Which binding signal does the source give for “CCTTGCAATCACACTAACAAGAGTATACAGAGCAAAACAGCGGAGTCACCTAGTGCAG” here?
A: 6210 fluorescence intensity (a.u.)

Q: “CCCTAAATGGACATATACATACAAGGTAGTATAAAGGAGTCGGAGTCACCTAGTGCAG” was tested. Which binding signal did it give?
A: 17800 fluorescence intensity (a.u.)

Q: Which binding signal does the source give for “CAATAGAACAATTACTAATTAAATTATGTACGTACTAATACGGAGTCACCTAGTGCAG” here?
A: 7170 fluorescence intensity (a.u.)

Q: For “TTATAATTAGCTGTACGTAAAATAATGAGACCAAGCATGACGGAGTCACCTAGTGCAG”, which binding signal is on record?
A: 15300 fluorescence intensity (a.u.)

Q: With “GTATCCAAGATTCAATCACTCTCAGGTCATCAGGCGTGGCCGGAGTCACCTAGTGCAG” as the sequence, how does the binding signal read?
A: 3160 fluorescence intensity (a.u.)

Q: Which binding signal does the source give for “GATTCTATTTATCAAATCATAATTAATAAATCCATTTGTTCGGAGTCACCTAGTGCAG” here?
A: 3770 fluorescence intensity (a.u.)

Q: How did the binding signal turn out when “TTGTTGTAATTATGTCATCGGTTTGTATTTAGTACCATATCGGAGTCACCTAGTGCAG” was run?
A: 13500 fluorescence intensity (a.u.)

Q: “GGGTGTAATTATAAAAGTGGAAACGAAACGAGACGAAATACGGAGTCACCTAGTGCAG” was tested. Which binding signal did it give?
A: 5560 fluorescence intensity (a.u.)

Q: “TAATAAATTTGTTTCATCACTTGTGGAGATGTTTCAACCTCGGAGTCACCTAGTGCAG” was tested. Which binding signal did it give?
A: 13100 fluorescence intensity (a.u.)

Q: Which binding signal does the source give for “TGTTAATAATTATTATGGTAAAATTGTCTAAAATTCTGTTCGGAGTCACCTAGTGCAG” here?
A: 23500 fluorescence intensity (a.u.)

Q: How did the binding signal turn out when “TAGTGATTACATCACTACTGATAGCCTGATATATGGCAAGCGGAGTCACCTAGTGCAG” was run?
A: 21500 fluorescence intensity (a.u.)

Q: How did the binding signal turn out when “CGCAATTAGGAATTAATTTAGGCGGCCGAATTAAAGAAATCGGAGTCACCTAGTGCAG” was run?
A: 34800 fluorescence intensity (a.u.)

Q: With “CCAAATTTCTCTATTTATACTCTGACACAGCCATACAGGTCGGAGTCACCTAGTGCAG” as the sequence, how does the binding signal read?
A: 16900 fluorescence intensity (a.u.)
